Test results taken from PubChem BioAssay AID1347417 (National Center for Advancing Translational Sciences (NCATS), 2020).
Among all 120,000 compounds or so, about 5,300 (4.4%) were called active. This list was built around the results that the source calls inconclusive (neither active nor inactive); the mix of calls is not that of the screen. The call rests on the fitted dose curve; in most records, active means well fitted inhibition curve with a large enough effect; inconclusive means small, poorly fitted or top-dose-only effect; inactive means no such curve, though single readings can be large or run the other way. Potencies beside an inconclusive call are fits to weak or partial responses and may not hold up.

experiment: qHTS Primary assay for Inhibitors of Plasmodium falciparum Dd2 growth in vitro; further: nearly all actives have a fitted effect of over 65% in size; details: P. falciparum Dd2 growth, SYBR Green, 72 h; series mostly up to 28.9 µM
In short: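 Readout: SYBR Green fluorescence, 485 nm excitation, 535 nm emission, after ~16 h lysis at 37C. Before that, Dd2-infected red cells (2.5% hematocrit) grew 72 h with compound, 29 uM top final concentration.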
Potency means the concentration at half of the fitted maximal effect; tags describe the fitted curve by direction and shape.

Structure (SMILES)	Potency
CC(C)CN1C(=O)c2ccccc2C(C(=O)Nc2nncs2)C12CCCCC2 (stereo not drawn)	inconclusive: 12.6 µM [inhibitor, single point]
O=C(Cn1nc2c(cc1=O)CCCCC2)Nc1nc(-c2cccnc2)cs1	inconclusive: 17.8 µM [inhibitor, single point]
Cc1ccc(C(=O)NCc2nnc3cc(-c4nc(C5CC5)no4)ccn23)cc1C	inconclusive: 0.178 µM [inhibitor, full curve, poor fit]
CS(=O)(=O)N(Cc1cccnc1)C1CN(C(=O)c2[nH]nc3c2CCc2ccccc2-3)C1	inconclusive: 20 µM [inhibitor, single point]
O=C(NC[C@H]1OC[C@@H](NCc2ccccn2)[C@@H]1O)c1ccccc1	inactive
COc1ccc(Nc2cc(-c3ccccc3OC)nc3c(C)noc23)cc1OC	inconclusive: 1.26 µM [inhibitor, single point]
CCCNC(=O)CCSc1nc(-c2ccc3c(c2)OCO3)cc(C(F)(F)F)n1	active: 5.01 µM
Cc1cc(C)c2nc(N(Cc3cccnc3)C(=O)CCOc3ccccc3)sc2c1	inconclusive: 12.6 µM [inhibitor, single point]
Cc1ccc2nc(-c3cccnc3)c(Nc3ccccc3C)n2c1	inconclusive: 7.08 µM [inhibitor, partial curve]
CN(C)c1ccc(CN2CCCC3(C2)NC(=O)c2ccccc2O3)cc1 (stereo not drawn)	inconclusive: 17.8 µM [inhibitor, single point]
O=c1c(S(=O)(=O)c2cccc(Cl)c2)cn(Cc2ccccc2)c2cc(N3CCOCC3)c(F)cc12	inconclusive: 17.8 µM [inhibitor, single point]
CN(Cc1cccnc1)C(=O)CC(c1ccccc1)c1ccc(Cl)cc1 (stereo not drawn)	inconclusive: 17.8 µM [inhibitor, single point]
O=C(c1cccnn1)N1CCC2(CC1)CC(c1ccccc1)CN(C1CC1)C2 (stereo not drawn)	inactive
O=C(CCc1cc2ccccc2[nH]c1=O)N1CCN(C(=O)c2ccco2)CC1	inconclusive: 3.98 µM [inhibitor, full curve]
CC(C)c1ccc(OCC(=O)N(Cc2ccc(N(C)C)cc2)C2CCS(=O)(=O)C2)cc1 (stereo not drawn)	inconclusive: 17.8 µM [inhibitor, single point]
C=Cc1ccc(CSc2nc(-c3ccc(C)cc3)nc3c2Cc2c(CO)cnc(C)c2O3)cc1	active: 2.82 µM
Cc1ccc(-c2noc([C@@H]3C[C@H](NC(=O)Nc4cccc(F)c4)CN3C)n2)cc1	inconclusive: 31.6 µM [inhibitor, single point]
O=C(C1CCCC1)N1CCC(c2noc(COCC3CC3)n2)CC1	inactive
COc1ccc(CN2Cc3cc(NC(=O)c4ccccc4)ccc3OC(C)C2=O)cc1 (stereo not drawn)	inconclusive: 11.2 µM [inhibitor, single point]
O=C(NCC1CC1)c1cc(C2CC2)nc2onc(C3CCNCC3)c12	inactive
COCC(=O)N1CCCC(c2noc(COc3ccccc3)n2)C1 (stereo not drawn)	inactive
O=C1N(c2ccccc2)c2ccccc2C12CCN([S+](=O)([O-])c1ccccc1)C2 (stereo not drawn)	active: 7.94 µM

Structure (SMILES)	Potency
Cc1nc2c(c(-c3ccc(Cl)cc3)n1)CN([S+](=O)([O-])c1ccccc1)CC2	inconclusive: 10 µM [inhibitor, single point]
Cc1ccc([S+](=O)([O-])N2CCc3nc(-c4ccc(Cl)cc4)nc(-c4ccccc4)c3C2)cc1	inconclusive: 3.98 µM [inhibitor, single point]
Cc1noc(C)c1CO[C@@H]1COCC[C@H]1NC1CSCCSC1	inactive
O=C(Nc1ccc2n(c1=O)C[C@H]1C[C@@H]2CN(C(=O)c2ccc(-c3ccccc3)cc2)C1)c1ccco1	inactive
COCCC1(NC(=O)c2ccccc2)CCN(S(=O)(=O)c2ccc(C#N)cc2)CC1	inconclusive: 11.2 µM [inhibitor, partial curve, poor fit]
Cc1cc2c(cc3c(SCc4nc(-c5ccccc5)oc4C)nnc(C)n32)o1	inconclusive: 12.6 µM [inhibitor, single point]
Cc1ccc(N2CCN(S(=O)(=O)c3ccc(F)c(C(=O)Nc4ccc(Cl)cc4Cl)c3)CC2C)cc1 (stereo not drawn)	inconclusive: 10 µM [inhibitor, single point]
O=C(NCc1cccc(C(F)(F)F)c1)C1(CCO)CCN(c2ncccn2)C1 (stereo not drawn)	inactive
COCCN1CCCN(C(=O)NCCc2ccccc2)c2ccccc21	inconclusive: 17.8 µM [inhibitor, single point]
CCn1nc(C)c(-c2nc(C3CCOC3)no2)c1C (stereo not drawn)	inactive
COC(=O)N1CCn2c(nnc2-c2ccccc2)C1	inactive
Cc1c[nH]c(CN2CCCC(CCc3ccc(F)cc3F)C2)c(C)c1=O (stereo not drawn)	active: 10 µM
Cc1cccc(C(=O)NCc2nnc3c(-c4nc(C(C)C)no4)cccn23)c1	inconclusive: 0.794 µM [inhibitor, full curve, poor fit]
Cc1cc(CNC(=O)c2cc(-c3ccccc3C)cc3c2OCCN3C)no1	inconclusive: 12.6 µM [inhibitor, partial curve, poor fit]
COc1ccc(S(=O)(=O)Nc2ccc3c(c2)CCCN3S(=O)(=O)c2ccc(C)cc2)cc1F	inactive
Cc1cc(=O)n(CC(=O)Nc2cccc(F)c2)c(-c2ccc(F)cc2)n1	inconclusive: 15.8 µM [inhibitor, single point]
CC(C)CC(=O)N1CCC2(CC1)CC(N(Cc1ccc(F)cc1)C1CC1)CCO2 (stereo not drawn)	inconclusive: 10 µM [inhibitor, single point]
COc1ccc(N2CCN(C(=O)c3cccc(NC(=O)c4nsc5ccccc45)c3)CC2)cc1	inconclusive: 10 µM [inhibitor, single point]
CCOc1ccc(-c2cc(-c3nc(-c4cc(OC)c(OC)c(OC)c4)no3)[nH]n2)cc1	inconclusive: 17.8 µM [inhibitor, single point]
CC(=O)N1CCN(C(=O)C2CCNCC2)C[C@@H]1C(=O)N[C@@H](CC1CCCCC1)C(N)=O	inactive
CCOc1cccc(CNC(=O)C2CCCCC(=O)N2C)c1 (stereo not drawn)	inactive
